# According to the supplement of paper PMC8728848:
# The other results are listed elsewhere or left out.
# B1: CCL1 (Coprinopsis cinerea) (protein)
# chain: MDTQAKPPAGRYVIYNRVLSPNGEKLALTYPGYQREALTLTPLHHSANQIWILNNWDATTSSLTPETARNTQVGWGSGNVPIVLPPGNYVWTLASSAGGYIIQDGGKTVYWNAGEAVANTKVSIGGDNGLQARWIFERV
# Legend:
# Assay in all cases: glycan array binding signal (z-score within array); higher = stronger binding
# Details in all cases: glycan notation: IUPAC condensed, linker removed
# Gal3S4S(b1-4)GlcNAc = molecular target: Gal3S4S(b1-4)GlcNAc
# In short: (§1)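 Arrays were curated from the Consortium for Functional Glycomics database, 3228 in total, and kept only where the protein sequence was available. Binding is expressed as a within-array Z-score. This score was averaged across arrays of the same protein sequence at different concentrations or buffers and across linkers, and negative values can be read as non-binding.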
# Gal3S6S(b1-4)GlcNAc = molecular target: Gal3S6S(b1-4)GlcNAc
# In short: as §1
# Gal3S6S(b1-4)GlcNAc6S = molecular target: Gal3S6S(b1-4)GlcNAc6S
# In short: as §1
# Gal4S(b1-4)GlcNAc = molecular target: Gal4S(b1-4)GlcNAc
# In short: as §1
# Gal4S6S(b1-4)GlcNAc = molecular target: Gal4S6S(b1-4)GlcNAc
# In short: as §1
# Gal6P(b1-4)GlcNAc = molecular target: Gal6P(b1-4)GlcNAc
# In short: as §1
# Gal6S(b1-3)GlcNAc = molecular target: Gal6S(b1-3)GlcNAc
# In short: as §1
# Gal6S(b1-3)GlcNAc6S = molecular target: Gal6S(b1-3)GlcNAc6S
# In short: as §1
# Gal6S(b1-4)Glc = molecular target: Gal6S(b1-4)Glc
# In short: as §1
# Gal6S(b1-4)Glc6S = molecular target: Gal6S(b1-4)Glc6S
# In short: as §1
# Gal6S(b1-4)GlcNAc = molecular target: Gal6S(b1-4)GlcNAc
# In short: as §1
# Gal6S(b1-4)GlcNAc6S = molecular target: Gal6S(b1-4)GlcNAc6S
# In short: as §1
# GalNAc(a1-3)Gal = molecular target: GalNAc(a1-3)Gal
# In short: as §1
# GalNAc(a1-3)GalNAc = molecular target: GalNAc(a1-3)GalNAc
# In short: as §1
# [1] = molecular target: GalNAc(a1-3)GalNAc(b1-3)Gal(a1-4)Gal(b1-4)Glc
# In short: as §1
# [2] = molecular target: GalNAc(a1-3)GalNAc(b1-3)Gal(a1-4)Gal(b1-4)GlcNAc
# In short: as §1
# GalNAc(b1-3)Gal = molecular target: GalNAc(b1-3)Gal
# In short: as §1
# [3] = molecular target: GalNAc(b1-3)Gal(a1-4)Gal(b1-4)GlcNAc
# In short: as §1
# [4] = molecular target: GalNAc(b1-3)Gal(a1-4)Gal(b1-4)GlcNAc(b1-3)Gal(b1-4)Glc
# In short: as §1
# [5] = molecular target: GalNAc(b1-3)Gal(a1-6)Gal(b1-4)Glc
# In short: as §1
# GalNAc(b1-3)GalNAc = molecular target: GalNAc(b1-3)GalNAc
# In short: as §1
# GalNAc(b1-4)Gal(b1-4)Glc = molecular target: GalNAc(b1-4)Gal(b1-4)Glc
# In short: as §1
# GalNAc(b1-4)GlcNAc = molecular target: GalNAc(b1-4)GlcNAc
# In short: as §1
# [6] = molecular target: GalNAc(b1-4)GlcNAc(b1-2)Man(a1-3)[GalNAc(b1-4)GlcNAc(b1-2)Man(a1-6)]Man(b1-4)GlcNAc(b1-4)GlcNAc
# In short: as §1
# GalNAc(b1-4)GlcNAc6S = molecular target: GalNAc(b1-4)GlcNAc6S
# In short: as §1
# GalNAc(b1-6)GalNAc = molecular target: GalNAc(b1-6)GalNAc
# In short: as §1
# GalNAc3S(b1-4)GlcNAc = molecular target: GalNAc3S(b1-4)GlcNAc
# In short: as §1
# GalNAc3S(b1-4)GlcNAc3S = molecular target: GalNAc3S(b1-4)GlcNAc3S
# In short: as §1
# GalNAc4S6S(b1-4)GlcNAc = molecular target: GalNAc4S6S(b1-4)GlcNAc
# In short: as §1
# GalNAc6S(b1-4)GlcNAc = molecular target: GalNAc6S(b1-4)GlcNAc
# In short: as §1
# Glc(a1-4)Glc = molecular target: Glc(a1-4)Glc
# In short: as §1
# [7] = molecular target: Glc(a1-4)Glc(a1-4)Glc(a1-4)Glc
# In short: as §1
# Glc(a1-6)Glc(a1-6)Glc = molecular target: Glc(a1-6)Glc(a1-6)Glc
# In short: as §1
# [8] = molecular target: Glc(a1-6)Glc(a1-6)Glc(a1-6)Glc
# In short: as §1
# Glc(b1-4)Glc = molecular target: Glc(b1-4)Glc
# In short: as §1
# Glc(b1-6)Glc = molecular target: Glc(b1-6)Glc
# In short: as §1
# GlcA(b1-3)Gal = molecular target: GlcA(b1-3)Gal
# In short: as §1
# GlcA(b1-3)GlcNAc = molecular target: GlcA(b1-3)GlcNAc
# In short: as §1
# GlcA(b1-6)Gal = molecular target: GlcA(b1-6)Gal
# In short: as §1
# [9] = molecular target: GlcNAc(a1-3)Gal(b1-4)GlcNAc
# In short: as §1
# [10] = molecular target: GlcNAc(a1-4)Gal(b1-3)GlcNAc
# In short: as §1
# [11] = molecular target: GlcNAc(a1-4)Gal(b1-4)GalNAc
# In short: as §1
# [12] = molecular target: GlcNAc(a1-4)Gal(b1-4)GlcNAc
# In short: as §1
# [13] = molecular target: GlcNAc(a1-4)Gal(b1-4)GlcNAc(b1-3)Gal(b1-4)Glc
# In short: as §1
# [14] = molecular target: GlcNAc(a1-4)Gal(b1-4)GlcNAc(b1-3)Gal(b1-4)GlcNAc
# In short: as §1
binder,measurement,setting,value
B1,glycan array binding signal (z-score),Gal3S4S(b1-4)GlcNAc,0.009
same,glycan array binding signal (z-score),Gal3S6S(b1-4)GlcNAc,-0.165
same,glycan array binding signal (z-score),Gal3S6S(b1-4)GlcNAc6S,-0.145
same,glycan array binding signal (z-score),Gal4S(b1-4)GlcNAc,-0.148
same,glycan array binding signal (z-score),Gal4S6S(b1-4)GlcNAc,-0.168
same,glycan array binding signal (z-score),Gal6P(b1-4)GlcNAc,-0.134
same,glycan array binding signal (z-score),Gal6S(b1-3)GlcNAc,-0.152
same,glycan array binding signal (z-score),Gal6S(b1-3)GlcNAc6S,-0.017
same,glycan array binding signal (z-score),Gal6S(b1-4)Glc,-0.164
same,glycan array binding signal (z-score),Gal6S(b1-4)Glc6S,-0.145
same,glycan array binding signal (z-score),Gal6S(b1-4)GlcNAc,-0.157
same,glycan array binding signal (z-score),Gal6S(b1-4)GlcNAc6S,-0.037
same,glycan array binding signal (z-score),GalNAc(a1-3)Gal,-0.164
same,glycan array binding signal (z-score),GalNAc(a1-3)GalNAc,-0.159
same,glycan array binding signal (z-score),[1],-0.154
same,glycan array binding signal (z-score),[2],-0.166
same,glycan array binding signal (z-score),GalNAc(b1-3)Gal,-0.169
same,glycan array binding signal (z-score),[3],-0.118
same,glycan array binding signal (z-score),[4],-0.158
same,glycan array binding signal (z-score),[5],-0.111
same,glycan array binding signal (z-score),GalNAc(b1-3)GalNAc,-0.168
same,glycan array binding signal (z-score),GalNAc(b1-4)Gal(b1-4)Glc,-0.124
same,glycan array binding signal (z-score),GalNAc(b1-4)GlcNAc,-0.159
same,glycan array binding signal (z-score),[6],-0.144
same,glycan array binding signal (z-score),GalNAc(b1-4)GlcNAc6S,-0.137
same,glycan array binding signal (z-score),GalNAc(b1-6)GalNAc,-0.163
same,glycan array binding signal (z-score),GalNAc3S(b1-4)GlcNAc,-0.125
same,glycan array binding signal (z-score),GalNAc3S(b1-4)GlcNAc3S,-0.069
same,glycan array binding signal (z-score),GalNAc4S6S(b1-4)GlcNAc,-0.107
same,glycan array binding signal (z-score),GalNAc6S(b1-4)GlcNAc,-0.156
same,glycan array binding signal (z-score),Glc(a1-4)Glc,-0.117
same,glycan array binding signal (z-score),[7],-0.127
same,glycan array binding signal (z-score),Glc(a1-6)Glc(a1-6)Glc,-0.13
same,glycan array binding signal (z-score),[8],-0.137
same,glycan array binding signal (z-score),Glc(b1-4)Glc,-0.115
same,glycan array binding signal (z-score),Glc(b1-6)Glc,-0.128
same,glycan array binding signal (z-score),GlcA(b1-3)Gal,-0.096
same,glycan array binding signal (z-score),GlcA(b1-3)GlcNAc,-0.145
same,glycan array binding signal (z-score),GlcA(b1-6)Gal,-0.129
same,glycan array binding signal (z-score),[9],-0.139
same,glycan array binding signal (z-score),[10],-0.154
same,glycan array binding signal (z-score),[11],0.005
same,glycan array binding signal (z-score),[12],-0.145
same,glycan array binding signal (z-score),[13],-0.127
same,glycan array binding signal (z-score),[14],-0.126
